In a collection of fitness landscapes (doi:10.1016/j.celrep.2020.107928):
In all, about 81,000 sequences were measured (“one-hybrid fitness for binding NBS DNA”: median about -0.1, highest 2% from about 0.36 on). The list shows a part of the results.

B1: Caulobacter ParB omega fusion; a variant is named by its letters at X, in order, B8GW30 (parent)
chain: MESVVVGEPGMSEGRRGLGRGLSALLGEVDAAPAQAPGEQLGGSREAPIEILQRNPDQPRRTFREEDLEDLSNSIREKGVLQPILVRPSPDTAGEYQIVAGERAWRAAQRAGLKTVPIMVRELDDLAVLEIGIIENVQRADLNVLEEALSYKVLMEKFERTQENIAQTIGKSXSHVANXMRLLXLPDEVQSYLVSGELTAXHARAIAAAADPVALAKQIIEGGLSVRETEALARKAPNLSAGKSKGGRPPRVKDTDTQALESDLSSVLGLDVSIDHRGSTGTLTITYATLEQLDDLCNRLTRGI

Variants of: B1
Experiment: one-hybrid fitness for binding NBS DNA (the Noc-binding site; scaled: cognate 1, non-cognate 0); higher = stronger binding
Conditions: with NBS DNA site
Summary of the method: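 Selection: bacterial one-hybrid in E. coli USO, HIS3 reporter with the site 19 bp from the promoter, 48 hours at 37°C on M9-minus-histidine plus 0.1 mM IPTG and 5 mM 3-AT. Libraries were Caulobacter ParB with four randomised specificity codons, sequenced on Illumina before and after selection. Fitness is the rescaled log change in variant-to-wild-type read ratio, anchored to the cognate and non-cognate sites.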

Row | Variant | one-hybrid fitness for binding NBS DNA
1 | MACV | ≤ 0.2
2 | NPKS | ≤ 0.2
3 | CGAT | 0.244
4 | YSCR | ≤ 0.2
5 | GIWT | ≤ 0.2
6 | KTRM | ≤ 0.2
7 | PVRG | ≤ 0.2
8 | PESF | ≤ 0.2
9 | PQMI | ≤ 0.2
10 | INQF | ≤ 0.2
11 | RCHT | 0.538
12 | MVPA | ≤ 0.2
13 | HNMV | ≤ 0.2
14 | WMIT | ≤ 0.2
15 | SKLH | ≤ 0.2
16 | RHHH | ≤ 0.2
17 | RMWD | ≤ 0.2
18 | NDYF | ≤ 0.2
19 | FPGV | ≤ 0.2
20 | SYSN | ≤ 0.2
21 | TIGT | ≤ 0.2
22 | FTKG | ≤ 0.2
23 | AEAR | ≤ 0.2
24 | YTKV | ≤ 0.2
25 | RNAI | ≤ 0.2

Row | Variant | one-hybrid fitness for binding NBS DNA
26 | ADLY | ≤ 0.2
27 | HMFT | ≤ 0.2
28 | VVHA | ≤ 0.2
29 | ATCV | ≤ 0.2
30 | DMLL | ≤ 0.2
31 | SPAD | ≤ 0.2
32 | VLSF | ≤ 0.2
33 | KMTG | ≤ 0.2
34 | PERM | ≤ 0.2
35 | CRLT | ≤ 0.2
36 | FNPG | ≤ 0.2
37 | SLVF | ≤ 0.2
38 | NVST | ≤ 0.2
39 | PSKT | ≤ 0.2
40 | RMQC | ≤ 0.2
41 | RAQP | ≤ 0.2
42 | HGML | ≤ 0.2
43 | RGPY | ≤ 0.2
44 | KTLM | ≤ 0.2
45 | PPAD | ≤ 0.2
46 | KARR | 0.347
47 | PISL | ≤ 0.2
48 | ARNK | ≤ 0.2
49 | MPLH | ≤ 0.2
50 | SENC | ≤ 0.2

Row | Variant | one-hybrid fitness for binding NBS DNA
51 | GNPA | ≤ 0.2
52 | HMVY | ≤ 0.2
53 | QSRD | 0.219
54 | RTVG | ≤ 0.2
55 | YKFV | ≤ 0.2
56 | FSYG | ≤ 0.2
57 | QQRV | 0.493
58 | YSHN | ≤ 0.2
59 | VYAW | ≤ 0.2
60 | IIKT | ≤ 0.2
61 | SAHM | ≤ 0.2
62 | IHNV | ≤ 0.2
63 | PCDG | ≤ 0.2
64 | FFYG | ≤ 0.2
65 | QKTW | ≤ 0.2
66 | FRRW | ≤ 0.2
67 | GHNQ | ≤ 0.2
68 | RHMS | 0.386
69 | LYCL | ≤ 0.2
70 | INTF | ≤ 0.2
71 | QALQ | ≤ 0.2
72 | QCTG | ≤ 0.2
73 | SPTC | ≤ 0.2
74 | HDVL | ≤ 0.2
75 | TIRN | ≤ 0.2

Row | Variant | one-hybrid fitness for binding NBS DNA
76 | IYHD | ≤ 0.2
77 | DQRS | ≤ 0.2
78 | MSGT | ≤ 0.2
79 | CIEY | ≤ 0.2
80 | RWSV | ≤ 0.2
81 | GSCI | ≤ 0.2
82 | LPHC | ≤ 0.2
83 | QNCG | ≤ 0.2
84 | QVAS | 0.235
85 | KRTE | ≤ 0.2
86 | YENT | ≤ 0.2
87 | IQNI | ≤ 0.2
88 | CKSV | ≤ 0.2
89 | YEMA | ≤ 0.2
90 | LNIY | ≤ 0.2
91 | AAKN | ≤ 0.2
92 | ETLA | ≤ 0.2
93 | NSII | ≤ 0.2
94 | LAIN | ≤ 0.2
95 | QHPP | ≤ 0.2
96 | WHSI | ≤ 0.2
97 | TANT | ≤ 0.2
98 | NEPS | ≤ 0.2
99 | CGCN | ≤ 0.2
100 | HSLN | ≤ 0.2

Row | Variant | one-hybrid fitness for binding NBS DNA
101 | PWRC | ≤ 0.2
102 | DDNS | ≤ 0.2
103 | YGAY | ≤ 0.2
104 | QSIQ | ≤ 0.2
105 | VLHK | ≤ 0.2
106 | HRGG | ≤ 0.2
107 | IVIT | ≤ 0.2
108 | SPPK | ≤ 0.2
109 | AQGV | ≤ 0.2
110 | HSSC | ≤ 0.2
111 | GVFL | ≤ 0.2
112 | GYMS | ≤ 0.2
113 | LRSK | ≤ 0.2
114 | IAIT | ≤ 0.2
115 | GHPK | ≤ 0.2
116 | GMKN | ≤ 0.2
117 | VHCL | ≤ 0.2
118 | TMVR | ≤ 0.2
119 | CCNR | ≤ 0.2
120 | NSQS | ≤ 0.2
121 | SEVS | ≤ 0.2
122 | QATV | ≤ 0.2
123 | HYGT | ≤ 0.2
124 | GMRT | ≤ 0.2
125 | LLAP | ≤ 0.2

Row | Variant | one-hybrid fitness for binding NBS DNA
126 | ATMG | ≤ 0.2
127 | NMHC | ≤ 0.2
128 | DRSL | ≤ 0.2
129 | TMNV | ≤ 0.2
130 | DPQG | ≤ 0.2
131 | ADAG | ≤ 0.2
132 | DCLT | ≤ 0.2
133 | YDCS | ≤ 0.2
134 | KHLK | ≤ 0.2
135 | GTLD | ≤ 0.2
136 | FKWG | ≤ 0.2
137 | PTPR | ≤ 0.2
138 | PLKC | ≤ 0.2
139 | QIAK | ≤ 0.2
140 | VPVE | ≤ 0.2
141 | PDGP | ≤ 0.2
142 | CETW | ≤ 0.2
143 | YNNL | ≤ 0.2
144 | FVKP | ≤ 0.2
145 | QKVE | ≤ 0.2
146 | DTNF | ≤ 0.2
147 | HARY | ≤ 0.2
148 | PPKY | ≤ 0.2
149 | RMIY | ≤ 0.2
150 | RLNR | 0.526

Row | Variant | one-hybrid fitness for binding NBS DNA
151 | RDQV | ≤ 0.2
152 | LTEL | ≤ 0.2
153 | QIEP | ≤ 0.2
154 | IIHD | ≤ 0.2
155 | INME | ≤ 0.2
156 | DMAT | ≤ 0.2
157 | APCV | ≤ 0.2
158 | REQN | ≤ 0.2
159 | RKWY | ≤ 0.2
160 | ASDR | ≤ 0.2
161 | CRHG | ≤ 0.2
162 | KQTI | ≤ 0.2
163 | RIHD | ≤ 0.2
164 | QLFR | 0.329
165 | QQHN | ≤ 0.2
166 | HDPI | ≤ 0.2
167 | KHVS | ≤ 0.2
168 | KRVQ | 0.251
169 | LPVC | ≤ 0.2
170 | EESA | ≤ 0.2
171 | NYQG | ≤ 0.2
172 | FSYW | ≤ 0.2
173 | HDWM | ≤ 0.2
174 | EPIF | ≤ 0.2
175 | CPDW | ≤ 0.2

Row | Variant | one-hybrid fitness for binding NBS DNA
176 | CYNA | ≤ 0.2
177 | EDSR | ≤ 0.2
178 | MSKS | ≤ 0.2
179 | PSGN | ≤ 0.2
180 | NIQR | ≤ 0.2
181 | YSAY | ≤ 0.2
182 | QCFV | ≤ 0.2
183 | VKDS | ≤ 0.2
184 | QVEM | ≤ 0.2
185 | YRDL | ≤ 0.2
186 | RLHH | ≤ 0.2
187 | LVIT | ≤ 0.2
188 | EIYG | ≤ 0.2
189 | RVDC | ≤ 0.2
190 | QLTG | ≤ 0.2
191 | TCPT | ≤ 0.2
192 | AHYG | ≤ 0.2
193 | TGNK | ≤ 0.2
194 | WKYS | ≤ 0.2
195 | CTER | ≤ 0.2
